Assay results published in PMC6451091.
This is one part of the list. For part of these data: At the low end of the ranking the order means little. For part of these data: Measured with an extract: partners may take part in the binding.

Columns and labels:
Conditions in all cases: 20 mM HEPES pH 7.9, 100 mM NaCl, 1 mM DTT, 0.2 mg/mL BSA, 0.02% Triton X-100, 2% milk, 0.4 mg/mL salmon testes DNA; 1 h; temperature not stated; high values mean tight binding; double strand, one strand shown; sequences stand for … in GCCTAGCAC…GTGCTAGGTCTTGATTCGCTTGACGCTGCTG
PU.1 (IVT) = PU.1 (IVT) (UniProt P17947); assay: protein-binding microarray (PBM)
[1] = biological target: PU.1 (endogenous, THP-1 nuclear extract) (UniProt P17947); assay: nuclear extract protein-binding microarray (nextPBM)
[2] = biological target: T1, FLI1 (endogenous, THP-1 nuclear extract) (UniProt Q01543); assay: as above
T1 sequence: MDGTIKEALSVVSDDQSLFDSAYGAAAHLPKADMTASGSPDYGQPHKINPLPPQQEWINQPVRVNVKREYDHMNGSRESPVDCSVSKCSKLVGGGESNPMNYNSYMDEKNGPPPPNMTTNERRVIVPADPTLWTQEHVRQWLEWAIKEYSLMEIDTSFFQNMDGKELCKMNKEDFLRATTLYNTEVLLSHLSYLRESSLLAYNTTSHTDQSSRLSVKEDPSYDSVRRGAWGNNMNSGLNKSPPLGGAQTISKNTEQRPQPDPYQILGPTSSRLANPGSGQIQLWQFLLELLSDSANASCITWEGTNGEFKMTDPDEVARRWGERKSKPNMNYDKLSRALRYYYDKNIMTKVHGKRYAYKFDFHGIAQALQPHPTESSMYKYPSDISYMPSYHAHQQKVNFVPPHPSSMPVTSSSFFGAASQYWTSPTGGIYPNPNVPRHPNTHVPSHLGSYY

Sequence | binding signal (PU.1 (IVT)) [z-score] | binding signal [1] [z-score] | binding signal [2] [z-score]
AGAAGAAGGAAGTGGGATTT | 4.89 | 4.83 | 2.39
CGAAAGGGGAAGTGCTTAAC | 7.08 | 7.01 | 3.6
AGTAGGGGGAAGTGTGCATG | 3.65 | 3.27 | 1.82
AAAAGAAGGAAGTGTCCTTC | 5.43 | 5.56 | 2.58
TGAAAGAGGAGGTGCAACCA | -0.411 | -0.0464 | -0.232
GGAAAGAGGAAGGGCATGGG | 3.55 | 4.23 | 1.53
TGAATGGGGAAGTCTTCTAA | 4.72 | 5.12 | 1.77
AAAATAAGGAAGTGCAATCA | 6.87 | 6.84 | 2.79
GAGGGGAGGAAGTGGGCAGG | 2.5 | 2.7 | 2.36
AGGCAGAGGAAGTGGAATCT | 3.38 | 3.06 | 2.63
TGACAGAGGAAGTGCAACCA | 3.01 | 3.35 | 2.38
GAAAGGAGGAAGTGGGTATA | 5.98 | 6.26 | 3.22
CAAGGGAGGAAGTGGAAAAA | 3.39 | 3.38 | 2.94
GAAAAGGGGAAGTGGGCTCA | 7.7 | 7.32 | 4.3
AAATAGAGGAAGTGGATGTT | 7.31 | 7.05 | 4.26
TGAAAGGGGAAGTGCTAAAC | 6.69 | 6.76 | 3.01
TAAAAGAGGAAGAGGAAGAA | 5.75 | 6.38 | 2.97
AATTTGAGGAAGTGAATCTG | 7.68 | 7.4 | 3.81
CGGAAGAGGAAGTGGTTGCG | 6.73 | 6.74 | 5.06
AAATTAAGGAAGTGAGGGTA | 5.76 | 6.47 | 2.51
GAGAAGAGGAAGTGAGATCT | 6.45 | 6.78 | 3.36
CAGCAGAGGAAGTGAAAAGC | 2.56 | 2.95 | 2.31
CGAAAGGGGAAGTGCTACAC | 7.07 | 7.13 | 3.08
CAGAAAAGGAAGTGGGGGTG | 3.51 | 3.66 | 2.75

Sequence | binding signal (PU.1 (IVT)) [z-score] | binding signal [1] [z-score] | binding signal [2] [z-score]
AGGAAGAGGAAGTGAAGAGC | 6.37 | 6.75 | 3.45
TGGTTGAGGAAGTGTTGGAG | 3.73 | 3.6 | 2.24
ACGAAGAGGAAGTAAAAGGC | 6.54 | 6.21 | 2.89
TTGAAGAGGAAGTTTTACTT | 5.32 | 3.98 | 2.55
CCAAAGAGGAAGTGAATGAA | 6.6 | 6.77 | 3.72
AGAAAGAGGAAGTCCAGTAC | 7.98 | 7.3 | 4.42
CCACAGAGGAAGTGGCTGAG | 3.06 | 3.46 | 2.56
CGAAAGGGGACGTGCTAAAC | 0.374 | 0.362 | -0.365
GAAAAAAGGAAGTTGCACAG | 6.42 | 6.47 | 3.11
CGAAAGGGAAAGTGCTAAAC | 0.333 | 0.14 | 0.556
AGGAAAGGGAAGTGACTCTC | 4.92 | 5.78 | 2.76
AGTAAAGGGAAGTGAAAAGA | 4.02 | 4.35 | 1.82
AGGGAGAGGAAGTAGCATTA | 4.73 | 4.41 | 2.58
TAAAAGGAGAAGTGTGACTC | 4.24 | 4.86 | 1.19
AAAAAGAGGAAATGTAAATG | 6.13 | 5.82 | 2.91
AAAAAAAGGAAGTGGACCGT | 6.55 | 6.67 | 3.12
GAAAAAGGGAAGTGACATCA | 6.82 | 7.09 | 2.98
ACAGAGAGGAACTGCAGGCT | 1.95 | 1.99 | 0.343
CAAATGAGGAACTGATATTC | 5.98 | 6.44 | 1.79
TGAAAGAGGAAGTGCTATCT | 8.02 | 7.35 | 3.97
AAGAAGAGGAAGAGGCGTGA | 2.66 | 2.9 | 1.03
CGCAAGGGGAAGTGCTAAAC | 4.55 | 4.77 | 2.15
GTGTGGAGGAAGTGGGGTCT | 2.86 | 2.92 | 2.31
GAGAAGGGGAAGTGAAGATG | 5.25 | 5.94 | 2.4

Sequence | binding signal (PU.1 (IVT)) [z-score] | binding signal [1] [z-score] | binding signal [2] [z-score]
AAGAAGAGGAAGTGATATTG | 7.56 | 6.8 | 3.72
GAAATGAGGAAGTCGATGAC | 7.27 | 7.1 | 3.19
CGAAAGGGGAAGAGCTAAAC | 3.34 | 3.37 | 1.29
AGAAAAGGGAAGTGAGGTAC | 7.13 | 7.13 | 3
GGAAAAAGGAAGTCCTGTCA | 4.96 | 5.19 | 2.64
GAAAACATGAAGTCCCATAG | 0.769 | 0.537 | 0.0829
GAAAAGAGGAAGTCTGAAAA | 7.48 | 7.31 | 3.49
GGGAAAAGGAAGTCTTCTTT | 3.35 | 2.91 | 2.37
CCAGGGAGGAAGTGCAGTCC | 3.41 | 3.38 | 2.85
ATAAAGAGGAAGCCTGTGTG | 3.76 | 3.92 | 1.92
AAATAAAGGAAGTGGTAAGG | 4.81 | 4.98 | 2.61
ACAAAAGGGAACTGTGCCCC | 2.55 | 2.69 | 0.373
GAAGAAAGGAAGTGAAAGCT | 2.48 | 2.46 | 2.34
CTGTAGAGGAAGTGGATTAT | 3.87 | 4.1 | 2.91
GTTTTGAGGAAGTCTTAAAA | 5.55 | 5.82 | 2.29
AAAAAAAGGAACTGAATCCA | 4.94 | 4.82 | 1.7
TTTTTAGAGAAGTACTGTGA | 3.11 | 3.2 | -0.0214
GAGGAGAGGAAGTGGAGACT | 3.67 | 3.94 | 2.8
AGAAAGAGGAAGTGACTCAG | 8.06 | 7.42 | 4.41
CAAAAGAGGAAGTCACTGCA | 8.02 | 7.45 | 3.64
CAGGGGAGGAAGTGGGTTTA | 3.67 | 3.32 | 2.88
TGGAAGAGGAAGTGCAACCA | 5.9 | 6.57 | 3.74
CCAATGAGGAAGTGGACAAA | 5.81 | 6.15 | 2.68
CAAAAAGGGAAGTGGATGGT | 6.54 | 6.76 | 2.79

Sequence | binding signal (PU.1 (IVT)) [z-score] | binding signal [1] [z-score] | binding signal [2] [z-score]
AAAAAAAGGAACTCGCTAGA | 4.16 | 3.9 | 0.923
AAAGTAAGGAAGTGCTCAAG | 2.76 | 2.88 | 1.46
AGGAAGAGGAAGTGGAAGAA | 6.4 | 6.51 | 3.54
CCAAACAGGAACTACTGTGC | 3.89 | 4.04 | 2.17
GAAAAGGGGAAGAGGGAACT | 5.63 | 5.77 | 1.92
CAAATGGGGAAGTGAATTTT | 7.5 | 7.14 | 3.76
CAATAGGGGAAGTGGGTTGA | 5.85 | 6.32 | 2.38
GAGGGGAGGAAGTGAGGAGG | 2.67 | 2.73 | 2.42
CAGAAGAGGAAGTGTGAAAA | 6.05 | 6.45 | 3.04
TGAAAGAGGAAGTGCAACCG | 7.49 | 7.25 | 4.02
CCAATGAGGAAGTGCATTCA | 6.15 | 6.44 | 2.7
TGCAGGTGGAAGTACTGTGG | 1.43 | 1.43 | 0.75
AGATACAGGAAGTGAGAGTT | 4.56 | 5.23 | 4.53
GATAAGAGGAAGTCCACTGT | 5.86 | 6.19 | 2.58
GGGGAGAGGAAGTACTGTGA | 4.7 | 4.41 | 2.44
CCAAAGGGGAAGTGCTAAAC | 5.4 | 6.34 | 2.51
CTGAGGAGGAAGTGTGCTTG | 3.98 | 4.22 | 2.5
AAGAGGAGGAAGTGAAGAAA | 4.03 | 4.24 | 2.6
TAATAGAGGAACTGAAAATA | 4.27 | 4.58 | 1.51
CAAAAAGGGAAGTGGATCCT | 6.43 | 6.84 | 3.18
AAAAAAAGGAAGTGGACAAA | 6.62 | 6.29 | 3.04
CTTTTGGGGAAGTGGTTTCC | 5.19 | 5.98 | 2.83
TAAAAGAGGAAGTCCTCTTT | 7.92 | 7.49 | 3.7
TCAGGGAGGAAGTGACATTT | 4.03 | 4.15 | 3.12

Sequence | binding signal (PU.1 (IVT)) [z-score] | binding signal [1] [z-score] | binding signal [2] [z-score]
TAGAACAGGAAGTGTTGAAA | 5.2 | 5.03 | 5.01
CTTGTGAGGAAGTCAGAGCT | 2.77 | 2.78 | 1.67
AAAAAAAGGAAGTGGTAGCA | 6.75 | 6.46 | 3.17
GAATTGAGGAACTGAATGCT | 5.26 | 5.65 | 1.69
AATAACAGGAAGTGGGTGCT | 6.25 | 6.5 | 5.08
AAAAAGAGGAAGTAGAGAAC | 8.97 | 7.28 | 4.55
ACATTGGGGAAGTGGGGAAA | 3.69 | 4 | 1.53
TTTGAAAGGAAGTGAAGAGG | 1.78 | 1.87 | 2.36
TTTAAGAGGAAATGATTCTA | 2.78 | 2.64 | 2.36
GGAGGGAGGAAGTGGCAGAG | 3.9 | 3.29 | 2.61
TGAAAAGGGAAGTGGATGTG | 5.84 | 6.26 | 2.99
AAAAAAAGGATCTGGCTAGA | 0.682 | 0.671 | -0.466
GGGAAGAGGAAGTGCTTAGC | 6.06 | 6.64 | 3.48
AATAAAAGGAAGTCAGTTCT | 4.55 | 3.63 | 2.37
GAAATGGGGAAGTGCTTCAA | 7.41 | 7.12 | 2.77
CGAATGGGGAAGTGCTAAAC | 6.27 | 6.65 | 2.87
GTTTTGAGGAAGTCCAAACC | 5.5 | 5.97 | 2.14
ACAAAAAGGAACTGTACCCC | 1.74 | 1.92 | 0.651
CAAATGAGGAACTGATCCGG | 6.03 | 6.44 | 2.11
GCTGGGAGGAAGTGGGCTGG | 3.1 | 3.43 | 2.63
CAAATGAGGAAATGGGCTGT | 4.11 | 4.57 | 2.19
CTTTTAAGGAAGTGCTCACT | 4.92 | 5.44 | 2.17
GATAAGAGGAAGTCCTCAGT | 6.34 | 6.34 | 2.95
CAAATGGGGAAGTGATGACA | 6.84 | 6.78 | 3.09
